From PMC4336329 (PLoS ONE, 2015)
About 2,200 (0.71%) of roughly 310,000 compounds showed an effect of 50% or more. The effect is printed as a negative number. Some of the results follow.

These compounds were tested against human ether-à-go-go-related gene (hERG) potassium channel (human, UniProt Q12809) (assay: primary screen, population patch clamp on CHO cells stably expressing hERG).
human ether-à-go-go-related gene (hERG) potassium channel, sequence (Q12809 whole entry, looked up): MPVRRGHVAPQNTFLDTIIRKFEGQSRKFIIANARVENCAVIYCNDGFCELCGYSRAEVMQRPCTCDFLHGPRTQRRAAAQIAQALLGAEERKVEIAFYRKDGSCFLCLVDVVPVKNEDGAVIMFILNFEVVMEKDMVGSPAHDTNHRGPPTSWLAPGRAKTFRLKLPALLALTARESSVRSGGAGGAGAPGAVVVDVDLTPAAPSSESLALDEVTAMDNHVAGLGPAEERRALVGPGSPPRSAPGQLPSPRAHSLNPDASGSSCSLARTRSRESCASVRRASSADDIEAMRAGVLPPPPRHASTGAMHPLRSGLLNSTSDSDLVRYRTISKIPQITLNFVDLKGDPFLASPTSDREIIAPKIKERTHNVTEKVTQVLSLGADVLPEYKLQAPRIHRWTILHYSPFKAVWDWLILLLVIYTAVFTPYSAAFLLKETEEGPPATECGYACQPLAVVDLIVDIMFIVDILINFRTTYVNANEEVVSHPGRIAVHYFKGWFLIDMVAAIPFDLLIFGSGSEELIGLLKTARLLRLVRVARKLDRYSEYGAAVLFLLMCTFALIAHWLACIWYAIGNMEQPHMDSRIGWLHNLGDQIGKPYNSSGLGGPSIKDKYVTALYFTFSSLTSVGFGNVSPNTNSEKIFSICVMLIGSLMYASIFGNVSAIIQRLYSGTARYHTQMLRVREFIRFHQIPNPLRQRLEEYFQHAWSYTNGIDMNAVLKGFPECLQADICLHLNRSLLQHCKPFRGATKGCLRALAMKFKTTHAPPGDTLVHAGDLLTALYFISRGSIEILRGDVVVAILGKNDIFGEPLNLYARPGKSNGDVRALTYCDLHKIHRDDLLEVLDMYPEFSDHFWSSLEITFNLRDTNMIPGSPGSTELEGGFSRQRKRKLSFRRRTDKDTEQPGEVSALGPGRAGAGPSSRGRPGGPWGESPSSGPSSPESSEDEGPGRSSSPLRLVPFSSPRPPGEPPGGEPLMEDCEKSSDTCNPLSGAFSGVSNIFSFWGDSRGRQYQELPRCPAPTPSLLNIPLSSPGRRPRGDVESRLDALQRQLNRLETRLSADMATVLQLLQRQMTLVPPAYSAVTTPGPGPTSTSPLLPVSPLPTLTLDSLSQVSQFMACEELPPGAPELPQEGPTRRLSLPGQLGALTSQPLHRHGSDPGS

SMILES | hERG current change (%, negative = inhibition) at 1uM
NC(=S)NNc1c(F)c(F)c(F)c(F)c1F | 13.8%
Cc1sc2nc(NCCO)[nH]c(=O)c2c1C | 14.6%
CC(C)(C#N)c1cc(Cn2cncn2)cc(C(C)(C)C#N)c1 | -1.17%
CCn1c(CNC(=O)c2ccc3c(c2)OCO3)nnc1SCC(=O)Nc1cc(C)ccc1OC | 6.1%
O=C(c1cccnc1)c1ncc(C(F)(F)F)cc1Cl | 1.12%
CC(C)CC(=O)N1CCN(Cc2cccc([N+](=O)[O-])c2)CC1 | 7.83%
O=C(COC(=O)c1cc(=O)[nH]c2ccccc12)NCc1ccc(F)cc1 | -3.48%
CN(C)CCCn1c2c(c(SCC(=O)Nc3cccc4ccccc34)nc1=O)CCC2 | 4.92%
COc1ccc(CNC(=O)CNC(=O)c2ccc(Br)o2)cc1OC | 18.1%
O=c1cccccc1NN=C1CCCCCC1 | 14.1%
COCCCN1C(=O)C(O)=C(C(=O)c2ccco2)C1c1ccc(Br)cc1 (stereo not shown) | -5.22%
CCCC[n+]1ccn(-c2nc3ccccc3nc2[N-]S(=O)(=O)c2ccccc2)c1 | 3.47%
CCC1(C(=O)c2ccccc2)C2c3cc(Br)ccc3OC(=O)C21C(=O)N1CCOCC1 (stereo not shown) | 6.68%
C#CCOCCOCCOCCNc1nc(N2CCN(C(=O)C(Cc3ccc(O)cc3)n3cc(C(N)C(C)CC)nn3)CC2)nc(N2CCN(C(=O)C(Cc3ccc(O)cc3)n3cc(C(N)C(C)CC)nn3)CC2)n1.Cl (stereo not shown) | -16.9%
COc1ccc2sc(NCc3ccccc3)nc2c1 | 17.2%
O=C1NCCCc2nonc21 | 9.73%
COC(=O)c1sc(NC(=O)c2c(OC)cccc2OC)c(C#N)c1C | 11%
O=C(Cc1cccs1)N1CCN=C1SCc1ccccc1Cl | 3.66%
O=C(CN1C(=O)c2ccccc2C1=O)Oc1ccc(F)cc1 | 9.1%
COC(=O)Cc1c(C)c2ccc(OCc3nn[nH]n3)c(C)c2oc1=O | 6.9%

SMILES | hERG current change (%, negative = inhibition) at 1uM
Cc1cccc(OCC(=O)NCc2n[nH]c(=O)c3ccccc23)c1 | 0.313%
COc1ccc(-c2cc(C(=O)NC(C(=O)O)C(C)C)c(C)o2)cc1OC (stereo not shown) | 8.32%
COc1ccc(C(=O)Nc2ccnn2C2CCN(C(=O)c3cnsn3)CC2)cc1 | -8.17%
Fc1cccc(CN2CCN(c3nc4nonc4nc3NC3CC3)CC2)c1 | 11.7%
CCN1CCC[C@H]1CNC(=O)c1c(OC)ccc(Br)c1OC.Cl | -0.0431%
CCc1nnc(NC(=O)CSc2nnc(Cc3ccccc3)o2)s1 | 16.5%
CC1(C)NC(C)(C)c2nonc2/C1=N\O | 10.6%
CCCCCCC(C)n1cc(C(C)=O)c(=O)[nH]c1=O (stereo not shown) | 3.04%
CC(C)c1ccc(OCC(=O)Nc2ccccc2C(=O)N2CCOCC2)cc1 | 9.09%
CC1=NNC(=O)C1Cc1ccccc1 (stereo not shown) | 10.1%
CC(C)C(=O)Nc1sc2c(c1-c1nc3ccccc3[nH]1)CCCC2 | 2.86%
COc1ccc(C(=O)O/N=C(\C)c2nccs2)cc1 | 5.08%
CCCCN1CC(=O)N2[C@H]3c4cc(Cl)ccc4OC[C@@H]3[C@H](C(=O)OCC)[C@]2(C)C1=O | 17.5%
O=S(=O)(CC12C3C4C5C1C2C(Br)(C43)C51OCCO1)c1ccccc1 (stereo not shown) | 5.1%
CN1CCN(C(=S)SCC(=O)N2CCCc3ccccc32)CC1 | 9.45%
Cc1ccc(C(=O)NN2C(=O)C3C(C2=O)C2C=CC3C23CC3)cc1 (stereo not shown) | 11.3%
CCCC(=O)Nc1ccc(-c2nc3cc(C)ccc3o2)cc1 | 8.33%
COc1ccc2oc(C(=O)CCC(=O)O)c(N)c2c1 | 10.2%
Cc1ccc(NC(=O)CC2SC(=Nc3ccc(O)cc3)NC2=O)cc1 (stereo not shown) | 15.6%
Brc1cccc(/C=N\n2cnnc2)c1 | 12.8%

SMILES | hERG current change (%, negative = inhibition) at 1uM
Cc1ccccc1CS(=O)(=O)c1snnc1C | 8.71%
CCOC(=O)C1=C(C)Nc2ccccc2N=C1NC(=O)c1oc2ccccc2c1COC | -5.4%
COc1ccccc1CNC(=O)c1c(O)c2cc(OC)c(OC)cc2[nH]c1=O | 11%
CC(=O)N1CCc2c(sc(NC(=O)c3cccc(N4C(=O)CCC4=O)c3)c2C(N)=O)C1 | 10.5%
O=C(c1cc(N2CCOCC2)c(F)cc1[N+](=O)[O-])N1CCOCC1 | 12.6%
COc1ccc(Br)cc1C(=O)Nc1cccc(C)c1 | 8.3%
CC(C)(C)c1ccc(OCC(=O)N(c2ccccn2)C2CCCCC2)cc1 | -6.01%
O=C(CCCOC(=O)c1ccc(O)cc1O)c1ccccc1 | 4.12%
COc1ccc(/C=N/Nc2ncc(C(F)(F)F)cc2Cl)cc1OC | 22.2%
CC1CCC2(CC1)NC(=O)c1ccccc1O2 (stereo not shown) | 5.51%
CCc1ccccc1N(CC(=O)N1CCN(c2ccccc2)CC1)S(C)(=O)=O | 5.52%
Cc1ccc(CCNC(=O)c2cc(S(=O)(=O)N3CCCC3)cn2C)cc1 | 0.568%
Cc1ccc([N+](=O)[O-])cc1N/C=C/C(=O)c1ccco1 | 8.52%
COc1cc(/C=C(\C#N)C(=O)Nc2ccc(C(=O)O)cc2)ccc1OC(=O)c1cccc(F)c1 | 11.6%
Clc1ccc(Cc2nc(-c3ccncc3)no2)cc1 | 1.72%
CCN(CC)C(=O)c1cc(-c2ccccc2OC)on1 | -1.27%
CCc1cccc(CC)c1NC(=S)/C(=C(\[O-])c1ccc(Cl)s1)[n+]1ccccc1 | 4.02%
CCCN(CC(=O)Nc1ccccc1OC)C(=O)C1CCCC1 | 9.86%
